Test results from the supplement of paper PMC12217912.
The list shows a part of the results. Sequences were assembled here from the parent chain. Inactive controls read about 0.05.

B1: TEV protease; numbered along this chain (parent)
chain: MGESLFKGPRDYNPISSSICHLTNESDGHTTSLYGIGFGPFIITNKHLFRRNNGTLVVQSLHGVFKVKDTTTLQQHLVDGRDMIIIRMPKDFPPFPQKLKFREPQREERICLVTTNFQTKSMSSMVSDTSCTFPSGDGIFWKHWIQTKDGQCGSPLVSTRDGFIVGIHSASNFTNTNNYFTSVPKNFMELLTNQEAQQWVSGWRLNADSVLWGGHKVFMVKPEEPFQPVKEATQL

Variants of: B1
Experiment: raw area under fraction-flipped curve 0-4 h after induction (AUC4h, not background-subtracted), DNA-recorder readout of cleavage of the substrate (dimensionless); higher = more cleavage of the substrate by the protease variant
Conditions: temperature: 34 °C; time window: 0-4 h after rhamnose induction
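Also: Bxb1 expression induced with 0.2% (w/v) L-rhamnose at OD600 near 0.5, cultures sampled hourly, flipped fraction per protease–substrate barcode pair counted by paired-end Illumina sequencing.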

Variant	area with substrate ENLCFQS	area with substrate ENLDFQS	area with substrate ENLFFQS	area with substrate ENLGFQS	area with substrate ENLHFQS	area with substrate ENLIFQS	area with substrate ENLKFQS	area with substrate ENLMFQS	area with substrate ENLPFQS	area with substrate ENLQFQS	area with substrate ENLRFQS	area with substrate ENLSFQS	area with substrate ENLVFQS	area with substrate ENLWFQS	area with substrate ENLEFQS	area with substrate ENLNFQS	area with substrate ENLLFQS	area with substrate ENLTFQS
M83N	0.0522	0.0585	0.0583	0.0556	0.0484	0.0473	0.0381	0.0556	0.0477	0.0528	0.0346	0.0427	0.0561	0.058				
I85Q	0.0395		0.0409			0.0479	0.058	0.0658	0.0545		0.0767	0.0412	0.0643		0.0574	0.0598		
I86M	0.0705	0.0539	0.0859			0.075	0.0703	0.0796		0.0784	0.0336	0.0587				0.0551	0.0594	
I86P	0.0211	0.0387	0.0248		0.0465		0.0516		0.0443		0.019	0.0383				0.0342	0.0257	
R87L	0.0701	0.0526	0.066	0.0732	0.0706	0.0653	0.0745		0.0686		0.0698	0.0615	0.08	0.0757		0.0537		
F92Q	0.0706	0.0608	0.0862		0.0621		0.0903		0.0663		0.065	0.0457	0.0792			0.0407	0.0773	
P93E	0.0868	0.0685			0.0809		0.105		0.063	0.0828	0.0849	0.0599	0.133	0.0578	0.0573		0.0805	
L99A	0.0678		0.0832	0.0581						0.0505	0.0651	0.0681	0.077		0.0573	0.0569		0.0621
F101M	0.0566	0.0615	0.0613		0.101	0.0837	0.0726		0.0647	0.0598					0.0739	0.0644	0.0664	
E103N	0.0593	0.0428	0.0833		0.0587				0.0741			0.062	0.0623			0.0985		
Q105V	0.0633	0.0382	0.0772		0.0732		0.0908		0.0474		0.0807		0.0667	0.0721	0.0596	0.0522	0.0749	
R106C	0.0532	0.0479	0.11		0.0733		0.065	0.065	0.0703	0.0736	0.0793	0.0628		0.072	0.0697	0.0656		
E108W	0.0535	0.0629	0.0638		0.0469		0.0579	0.0577	0.0535	0.0644	0.0572	0.0561			0.0757	0.0683	0.054	
R109S	0.0597		0.0795		0.0625				0.0727		0.0856	0.0504	0.0799	0.0547		0.06	0.0866	
C111Q	0.0592		0.0844		0.0707		0.085		0.0771	0.0242	0.0519					0.0368		
T115I	0.072	0.0522	0.08				0.0664		0.0459			0.0719				0.0651		

Variant	area with substrate ENLCFQS	area with substrate ENLDFQS	area with substrate ENLFFQS	area with substrate ENLGFQS	area with substrate ENLHFQS	area with substrate ENLIFQS	area with substrate ENLKFQS	area with substrate ENLMFQS	area with substrate ENLPFQS	area with substrate ENLQFQS	area with substrate ENLRFQS	area with substrate ENLSFQS	area with substrate ENLVFQS	area with substrate ENLWFQS	area with substrate ENLEFQS	area with substrate ENLNFQS	area with substrate ENLLFQS	area with substrate ENLTFQS
N116G	0.0634					0.096	0.182		0.0609	0.051	0.0669	0.0653		0.0656		0.0619	0.0726	
S127R	0.073	0.0621	0.0794	0.0667	0.0613		0.0981				0.0799					0.0592		
C131A	0.0619	0.0509			0.0884		0.111								0.0704			
C131G	0.0905	0.062	0.0778			0.0705				0.0705		0.0722		0.0716	0.0518		0.0596	
F133S	0.0671	0.0679	0.0819			0.0734	0.0839	0.0758	0.0517			0.0593	0.0816	0.0725		0.0703		
W141D	0.0572	0.0396	0.0613		0.0616	0.0431	0.0655				0.0577		0.0617	0.0564	0.0572	0.0554	0.064	
H143Q	0.067	0.0651	0.0604			0.0623	0.06	0.0751	0.0791	0.0481	0.056	0.0784			0.0714	0.0632		
H143V	0.059	0.0542	0.0733	0.0701	0.0604	0.17	0.0597		0.0594	0.0617	0.075	0.0615	0.0659	0.0646	0.0637	0.0652	0.0639	
Q146G	0.075	0.0615	0.0867		0.0708	0.073		0.0827			0.0844			0.0662	0.0654		0.0867	
D149E	0.0773	0.0554	0.0822				0.076	0.0803	0.0529	0.0756	0.0623	0.0531		0.0696	0.0826	0.0635	0.0817	
D149W	0.0799	0.0741	0.0778	0.0451	0.0591		0.0693		0.0456		0.065	0.048			0.0655	0.0633		
G150M	0.056	0.044	0.0519		0.058	0.0704	0.0645	0.0609	0.0403	0.052		0.0552		0.0564	0.0589	0.0589	0.0469	0.0374
Q151V	0.0662		0.0795		0.07	0.0708				0.0555		0.0507				0.0574	0.0652	
L156A	0.0575	0.0738	0.0775		0.0654		0.0736	0.0581		0.0777	0.0796	0.0649				0.0494	0.0766	
V157K	0.0529	0.0479			0.0397		0.0961									0.0879		
T159H	0.0912		0.0726		0.0428	0.0974						0.0647				0.0658	0.0672	
